Measurements: US9763922B2 (priority 2014, dated 2017)

What follows are compounds tested on MYC (assay: cells). Settings: Homo sapiens, MV4-11, 4 h, read-out: Myc IC50 (μM).

SMILES | IC50 [µM]
CC(=O)N1CCc2c(c(N3CCCc4cc(-c5cnn(C)c5)c(OC(F)F)cc43)nn2C2COC2)C1 [Example 147, 1-[3-[7-(difluoromethoxy)-6-(1-methylpyrazol-4-yl)-3,4-dihydro-2H-quinolin-1-yl]-1-(oxetan-3-yl)-6,7-dihydro-4H-pyrazolo[4,3-c]pyridin-5-yl]ethanone] | 0.135
CC(=O)N1CCc2c(c(N3CCOc4cc(-c5cnn(C)c5)c(C(F)(F)F)cc43)nn2C2CCOCC2)C1 [Example 277, 1-[3-[7-(1-methylpyrazol-4-yl)-6-(trifluoromethyl)-2,3-dihydro-1,4-benzoxazin-4-yl]-1-tetrahydropyran-4-yl-6,7-dihydro-4H-pyrazolo[4,3-c]pyridin-5-yl]ethanone] | 0.021
CC(=O)N1CCc2c(c(Nc3cccc(-c4cnn(C)c4)c3C#N)nn2CC2CC2)C1 [Example 41, 2-[[5-acetyl-1-(cyclopropylmethyl)-6,7-dihydro-4H-pyrazolo[4,3-c]pyridin-3-yl]amino]-6-(1-methylpyrazol-4-yl)benzonitrile] | 0.49
CC(=O)N1CCc2c(c(N3CCc4ccccc43)nn2CC2CC2)C1 [Example 172, 1-[1-(cyclopropylmethyl)-3-indolin-1-yl-6,7-dihydro-4H-pyrazolo[4,3-c]pyridin-5-yl]ethanone] | 1.69
CC(=O)N1CCc2c(c(Nc3ccc(-c4ccnn4C)cc3)nn2CC2CC2)C1 [Example 96, 1-[3-(5-chloro-3,4-dihydro-2H-quinolin-1-yl)-1-[(3S)-tetrahydrofuran-3-yl]-6,7-dihydro-4H-pyrazolo[4,3-c]pyridin-5-yl]ethanone] | 0.45
CC(=O)N1CCc2c(c(N3CCCc4cc(-c5cnn(C)c5)c(C(F)F)cc43)nn2C2CCN(CC(F)(F)F)CC2)C1 [Example 346, 1-[3-[7-(difluoromethyl)-6-(1-methylpyrazol-4-yl)-3,4-dihydro-2H-quinolin-1-yl]-1-[1-(2,2,2-trifluoroethyl)-4-piperidyl]-6,7-dihydro-4H-pyrazolo[4,3-c]pyridin-5-yl]ethanone] | 0.012
CC(=O)N1CCc2c(c(Nc3cc(C)cc(C(=O)NC(C)C)c3)nn2C)C1 [Example 18, 3-[(5-acetyl-1-methyl-6,7-dihydro-4H-pyrazolo[4,3-c]pyridin-3-yl)amino]-N-isopropyl-5-methyl-benzamide] | 0.73
CNC(=O)N1CCc2c(c(N3CCCc4cc(-c5cnn(C)c5)c(C)cc43)nn2C2CCOCC2)C1 [Example 255, N-methyl-3-[7-methyl-6-(1-methylpyrazol-4-yl)-3,4-dihydro-2H-quinolin-1-yl]-1-tetrahydropyran-4-yl-6,7-dihydro-4H-pyrazolo[4,3-c]pyridine-5-carboxamide] | 0.047
CC(=O)N1CCc2c(c(N3CCCc4cc(-c5cnn(C)c5)c(C#N)cc43)nn2C2CCOCC2)C1 [Example 128, 1-(5-acetyl-1-tetrahydropyran-4-yl-6,7-dihydro-4H-pyrazolo[4,3-c]pyridin-3-yl)-6-(1-methylpyrazol-4-yl)-3,4-dihydro-2H-quinoline-7-carbonitrile] | 0.027
CNC(=O)N1CCc2c(c(N3CCCc4cc(-c5cnn(C)c5)c(C(F)F)cc43)nn2-c2ccccc2)C1 [Example 340, 3-[7-(difluoromethyl)-6-(1-methylpyrazol-4-yl)-3,4-dihydro-2H-quinolin-1-yl]-N-methyl-1-phenyl-6,7-dihydro-4H-pyrazolo[4,3-c]pyridine-5-carboxamide] | 0.021
CNC(=O)N1CCc2c(c(N3CCCc4cc(-c5cn(C)nc5C(F)(F)F)c(C(F)F)cc43)nn2C2CCS(=O)(=O)CC2)C1 [Example 326, 3-[7-(difluoromethyl)-6-[1-methyl-3-(trifluoromethyl)pyrazol-4-yl]-3,4-dihydro-2H-quinolin-1-yl]-1-(1,1-dioxothian-4-yl)-N-methyl-6,7-dihydro-4H-pyrazolo[4,3-c]pyridine-5-carboxamide] | 0.078
CC(=O)N1CCc2c(c(N3CCCc4cc(-c5cnn(C)c5)c(C(F)F)cc43)nn2C2CCS(=O)(=O)CC2)C1 [Example 323] | 0.021
CC(=O)N1CCc2c(c(N3CCc4cc(-c5cn(C)nc5C(F)(F)F)ccc43)nn2C2COC2)C1 [Example 181, 1-[3-[5-[1-methyl-3-(trifluoromethyl)pyrazol-4-yl]indolin-1-yl]-1-(oxetan-3-yl)-6,7-dihydro-4H-pyrazolo[4,3-c]pyridin-5-yl]ethanone] | 0.188
CC(=O)N1CCc2c(c(N3C[C@@H](C)Cc4cc(-c5cnn(C)c5)c(C(F)F)cc43)nn2C2CCOCC2)C1 [Example 240, (S)-1-[3-[7-(difluoromethyl)-3-methyl-6-(1-methylpyrazol-4-yl)-3,4-dihydro-2H-quinolin-1-yl]-1-tetrahydropyran-4-yl-6,7-dihydro-4H-pyrazolo[4,3-c]pyridin-5-yl]ethanone] | 0.035
CC(=O)N1CCc2c(c(Nc3cccc(-c4cnn(C)c4)c3)nn2CCC(F)(F)F)C1 [Example 84, 1-(5-acetyl-1-((S)-tetrahydrofuran-3-yl)-6,7-dihydro-4H-pyrazolo[4,3-c]pyridin-3-yl)-3-methyl-6-(1-methylpyrazol-4-yl)-3,4-dihydro-2H-quinoline-7-carbonitrile] | 0.39
CC(=O)N1CCc2c(c(N3CCCc4cc(-c5cnn(C)c5C)c(C(F)F)cc43)nn2C2CCS(=O)(=O)CC2)C1 [Example 322, 1-[3-[7-(difluoromethyl)-6-(1,5-dimethylpyrazol-4-yl)-3,4-dihydro-2H-quinolin-1-yl]-1-(1,1-dioxothian-4-yl)-6,7-dihydro-4H-pyrazolo[4,3-c]pyridin-5-yl]ethanone] | 0.019
CC(=O)N1CCc2c(c(Nc3ccc(-c4cnn(C)c4C)cc3F)nn2[C@@H]2CCOC2)C1 [Example 285, (R)-1-[3-[4-(1,5-dimethylpyrazol-4-yl)-2-fluoro-anilino]-1-tetrahydrofuran-3-yl-6,7-dihydro-4H-pyrazolo[4,3-c]pyridin-5-yl]ethanone] | 0.58
CCC1CN(c2nn(C3CCOC3)c3c2CN(C(C)=O)CC3)c2ccc(-c3cnn(C)c3)cc21 (centres unmarked) [Example 200, 1-[3-[3-ethyl-5-(1-methylpyrazol-4-yl)indolin-1-yl]-1-tetrahydrofuran-3-yl-6,7-dihydro-4H-pyrazolo[4,3-c]pyridin-5-yl]ethanone] | 0.228
CNC(=O)N1CCc2c(c(N3CCCc4cc(-c5cnn(C)c5)c(C(F)F)cc43)nn2[C@@H]2CCO[C@H](C)C2)C1 [Example 339, (R,R)-3-[7-(difluoromethyl)-6-(1-methylpyrazol-4-yl)-3,4-dihydro-2H-quinolin-1-yl]-N-methyl-1-(2-methyltetrahydropyran-4-yl)-6,7-dihydro-4H-pyrazolo[4,3-c]pyridine-5-carboxamide] | 0.006
CC(=O)N1CCc2c(c(N3CCc4cc(-c5cnn(C)c5)cc(F)c43)nn2C)C1 [Example 217, 1-[3-[7-fluoro-5-(1-methylpyrazol-4-yl)indolin-1-yl]-1-methyl-6,7-dihydro-4H-pyrazolo[4,3-c]pyridin-5-yl]ethanone] | 0.395
CNc1ccc(-c2cc3c(cc2C(F)F)N(c2nn(C4CCOCC4)c4c2CN(C(C)=O)CC4)CCC3)cn1 [Example 311] | 0.019
CC(=O)N1CCc2c(c(Nc3ccc(-c4cn(C)nc4C(F)F)cc3F)nn2[C@@H]2CCOC2)C1 [Example 307, (R)-1-[3-[4-[3-(difluoromethyl)-1-methyl-pyrazol-4-yl]-2-fluoro-anilino]-1-tetrahydrofuran-3-yl-6,7-dihydro-4H-pyrazolo[4,3-c]pyridin-5-yl]ethanone] | 0.54
CNC(=O)N1CCc2c(c(N3CCCc4cc(-c5cnn(C)c5)c(C(F)F)cc43)nn2C(C)C)C1 [Example 378, 3-(7-(difluoromethyl)-6-(1-methyl-1H-pyrazol-4-yl)-3,4-dihydroquinolin-1(2H)-yl)-1-isopropyl-N-methyl-1,4,6,7-tetrahydro-5H-pyrazolo[4,3-c]pyridine-5-carboxamide] | 0.004
CC(=O)N1CCc2c(c(N3CCCc4cc(-c5cnn(C)c5)c(F)cc43)nn2C2CCOCC2)C1 [Example 141, 1-[3-[7-fluoro-6-(1-methylpyrazol-4-yl)-3,4-dihydro-2H-quinolin-1-yl]-1-tetrahydropyran-4-yl-6,7-dihydro-4H-pyrazolo[4,3-c]pyridin-5-yl]ethanone] | 0.206
CC(=O)N1CCc2c(c(N3CC(O)Cc4cc(-c5cnn(C)c5)ccc43)nn2[C@H]2CCOC2)C1 (stereo partly drawn) [Example 135, (S)-1-[3-[3-hydroxy-6-(1-methylpyrazol-4-yl)-3,4-dihydro-2H-quinolin-1-yl]-1-tetrahydrofuran-3-yl-6,7-dihydro-4H-pyrazolo[4,3-c]pyridin-5-yl]ethanone] | 1.07
CC(=O)N1CCc2c(c(N3CCC(CO)c4cc(-c5cnn(C)c5)ccc43)nn2C2CCOC2)C1 (centres unmarked) [Example 87, 1-[3-[4-(hydroxymethyl)-6-(1-methylpyrazol-4-yl)-3,4-dihydro-2H-quinolin-1-yl]-1-tetrahydrofuran-3-yl-6,7-dihydro-4H-pyrazolo[4,3-c]pyridin-5-yl]ethanone] | 14.3
CNC(=O)N1CCc2c(c(N3CCc4cc(-c5cnn(C)c5C)c(C(F)F)cc43)nn2C2CCOCC2)C1 [Example 253, 3-[6-(difluoromethyl)-5-(1,5-dimethylpyrazol-4-yl)indolin-1-yl]-N-methyl-1-tetrahydropyran-4-yl-6,7-dihydro-4H-pyrazolo[4,3-c]pyridine-5-carboxamide] | 0.028
Cn1cc(-c2ccc3c(c2)CCCN3c2nn([C@H]3CCOC3)c3c2CN(C(N)=O)CC3)cn1 [Example 150, 3-[6-(1-methylpyrazol-4-yl)-3,4-dihydro-2H-quinolin-1-yl]-1-[(3S)-tetrahydrofuran-3-yl]-6,7-dihydro-4H-pyrazolo[4,3-c]pyridine-5-carboxamide] | 14.4
CNC(=O)N1CCc2c(c(N3CCCc4cc(-c5cnn(C)c5)c(C(F)F)cc43)nn2C2CCS(=O)(=O)CC2)C1 [Example 325, 3-[7-(difluoromethyl)-6-(1-methylpyrazol-4-yl)-3,4-dihydro-2H-quinolin-1-yl]-1-(1,1-dioxothian-4-yl)-N-methyl-6,7-dihydro-4H-pyrazolo[4,3-c]pyridine-5-carboxamide] | 0.017
